Test results reported in the supplement of paper PMC3334620.
In all, about 33,000 sequences were measured (“E-score (-0.5 to 0.5)”: median about -0.043, highest 2% from about 0.37 on). The list shows a part of the results.

Biological target: T1, Upc2 (UniProt Q12151)
T1 sequence: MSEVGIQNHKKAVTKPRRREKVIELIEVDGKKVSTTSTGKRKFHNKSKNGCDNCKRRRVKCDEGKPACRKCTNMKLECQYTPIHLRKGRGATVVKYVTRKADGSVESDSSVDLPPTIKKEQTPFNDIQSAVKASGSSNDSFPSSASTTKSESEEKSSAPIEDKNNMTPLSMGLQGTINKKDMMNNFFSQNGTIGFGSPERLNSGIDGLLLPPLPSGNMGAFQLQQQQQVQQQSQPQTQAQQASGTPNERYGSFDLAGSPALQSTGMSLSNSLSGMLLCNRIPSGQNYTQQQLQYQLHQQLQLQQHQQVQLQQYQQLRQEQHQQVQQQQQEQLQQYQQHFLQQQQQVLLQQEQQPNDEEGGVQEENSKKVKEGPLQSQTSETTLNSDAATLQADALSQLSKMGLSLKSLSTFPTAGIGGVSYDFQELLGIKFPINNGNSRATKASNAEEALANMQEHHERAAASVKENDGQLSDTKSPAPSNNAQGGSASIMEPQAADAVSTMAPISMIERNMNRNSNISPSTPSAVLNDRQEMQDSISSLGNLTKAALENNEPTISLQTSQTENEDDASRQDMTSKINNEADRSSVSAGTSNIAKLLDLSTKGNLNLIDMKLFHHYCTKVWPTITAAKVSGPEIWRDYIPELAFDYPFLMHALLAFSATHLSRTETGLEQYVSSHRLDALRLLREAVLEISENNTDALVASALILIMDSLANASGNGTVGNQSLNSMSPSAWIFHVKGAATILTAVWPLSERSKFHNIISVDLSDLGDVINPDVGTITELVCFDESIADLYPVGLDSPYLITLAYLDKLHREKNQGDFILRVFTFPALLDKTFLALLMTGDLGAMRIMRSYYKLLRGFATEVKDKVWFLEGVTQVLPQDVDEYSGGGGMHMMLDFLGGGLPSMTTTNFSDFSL
Experiment: PBM E-score (8-mer binding enrichment) (E-score (-0.5 to 0.5)); higher = stronger / more preferred TF binding; most listed sequences are background and not binding sites
Conditions: protein concentration: 200 nM; construct: GST-full length
Outline: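 PURExpress in vitro transcription/translation supplied GST-tagged yeast transcription factors, either full-length or DNA-binding domain. Applied at about 100-200 nM to universal all-10-mer Agilent arrays double-stranded by primer extension, the bound protein was detected with fluorescent anti-GST. E-scores, modified Wilcoxon-Mann-Whitney statistics, were given by the Universal PBM Analysis Suite to ungapped eight-base words pooled with their reverse complements after masliner normalisation.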

Sequence | PBM E-score
CGGTCCCC | -0.102
GACCAGAC | -0.00063
ATAGCAGG | -0.183
AACTCAGG | -0.0663
CGCTGTAG | -0.165
CGTCTTAG | -0.206
CGCCTTGC | -0.288
TGACGTAA | 0.0846
AGGATTTG | -0.0759
CTCGTCAG | -0.0441
CCGCTCTC | -0.191
ACATGCCA | 0.0357
AATAATTC | 0.107
ATCCCTGC | -0.217
ACCCAGAA | -0.117
AAATTAGG | 0.0314
AGGACTAC | -0.157
ATTTAGGA | 0.0165
AAGAGTCC | -0.244
CAGGCACC | -0.09
GCCTCTGA | -0.2
ATAATGAA | 0.125
AGGAAGGA | -0.249
AACCCTTA | 0.113
TACAGCAA | 0.138

Sequence | PBM E-score
CGGGTTCC | 0.00463
AACTGAAC | 0.129
CCAGCTGA | -0.225
CATAAAAC | -0.118
GGGGGAGA | -0.34
ATTCGACA | 0.00037
AGCCGCGG | 0.119
AGGACGGC | -0.191
GCTAGGCA | -0.285
ACACCTTC | -0.0349
CCGCCTGC | -0.119
CCACTCAA | 0.122
ATATGACA | 0.026
CTACCACA | -0.234
CATGGCGA | -0.234
ATGTTGGG | -0.248
AGTGGCTC | 0.0705
CATCTGTA | 0.0377
AAGAACTA | -0.0199
AGGTACAG | -0.177
CACCAACA | -0.187
GATATTGA | -0.146
TCGAGTCA | -0.148
TAGAAACA | 0.0409
GAATTTAA | 0.0875

Sequence | PBM E-score
GTCGCCAA | -0.0108
TCACAACA | 0.065
ATCGCAGC | 0.085
GCTGTAAA | 0.0282
ATACACAA | 0.212
AAACGGGG | 0.398
CCGGCAGC | -0.365
AGGCTCCG | 0.00672
CTACGCAG | -0.141
CGTCTGGC | -0.0643
AGGGGACT | -0.268
GTGCGCAA | -0.032
ACCTTTGG | -0.258
GAGTTAGC | 0.00639
CCTTCATA | 0.0469
GCCCCGCC | 0.112
ACTAACGA | 0.276
CGTCGTGA | 0.127
CAAGAAGC | -0.075
AGGCCTCA | -0.289
AGTAAACA | 0.0452
GTCGTCTA | 0.248
TCCCTCGA | -0.0965
CGAACGCG | 0.185
GCAACTAA | -0.0788

Sequence | PBM E-score
CGTTTCGC | 0.301
CTTACTAC | 0.00475
ATCGCCCC | -0.152
GGAGGGAC | -0.118
CAGGACTG | -0.191
CCCCGGAC | -0.192
CACCCGGA | -0.086
CTTACAGC | -0.0579
CCACTCAG | -0.286
CAACGGAG | -0.242
GTCTCCAA | -0.0343
CCGACGTA | 0.225
GTACTAAA | 0.181
CCTCCTAC | -0.248
ATTTTTGG | -0.29
ACTAGTGC | -0.0458
CACACCCA | 0.17
ACACTAAC | -0.0591
CGATAGAC | -0.052
AGCCCGCC | -0.0552
GAACGCTC | 0.104
AGCAATCA | -0.0232
ACGCACCC | -0.112
CTCTGTAC | 0.143
ATCAGAAT | 0.00706

Sequence | PBM E-score
CTACGTTC | 0.102
CTTCATGA | -0.188
ATATGACC | -0.201
CAGCATGG | -0.0753
AGGCAGGG | -0.2
AGGAGAGG | -0.24
CAGCGAGC | 0.0418
ATAGGAAT | -0.0554
GAAATACC | -0.0219
GAAGCCCC | 0.0139
CTTTGCTA | -0.169
GCGTTTAC | 0.372
CGCCGTAA | 0.285
AAGTCCCT | -0.223
TCCCCTCA | -0.343
GGAGAAGA | -0.344
CCCCCTCC | -0.366
GTGAGGCA | -0.0702
CTAAGGAA | 0.0765
ACACATGG | -0.121
AAACTCGA | -0.0718
CTGCTCGA | -0.0837
ACCATATG | -0.125
TAGCCCCA | -0.142
CAGAAGAC | -0.0374

Sequence | PBM E-score
CGCGTGCC | 0.0186
AGGTCCAG | 0.0723
CCTGAGTC | -0.149
GAGAACGC | 0.0326
ATGTGCCC | -0.109
AGGAGCAG | -0.185
CATTACTC | -0.105
GTAATGAA | -0.0986
AAACCATT | -0.227
CCGCATAG | 0.089
GCTTAAAC | 0.297
CTCGCCAA | 0.0532
ACCATGTA | -0.188
ATTTGGTG | -0.0845
ATTCCGTA | 0.27
ATCACCGG | -0.241
ACAGTTAC | 0.0672
AACCACGC | -0.0526
CTATGGTA | -0.197
ACAATATC | 0.125
CGGTCGGA | -0.0376
GCTCACGA | 0.0766
GATTGTCC | -0.0545
CCGCCGGA | -0.256
AACCAAGC | -0.191

Sequence | PBM E-score
ATGCGTGA | -0.0524
ATGCTGTC | -0.189
TAAAGGAA | 0.117
CGTAGACC | 0.0738
CGCGTACA | 0.35
AGTGCGTC | -0.103
GACCATAA | 0.0712
ATAAGCCA | 0.0295
ACAGGTGG | 0.0641
CGCCCACA | -0.0806
AGCGTTCG | 0.0144
ATAGGGCG | -0.0378
AGAGCTGC | -0.212
AGTATAGC | 0.128
GATAATCC | -0.113
AAGGTAGC | -0.085
CCTGCACG | -0.0833
ATGCTACA | -0.0387
CTATTGAC | -0.166
CGTAAGAA | 0.288
CTATCGTA | 0.43
CAATTTTC | 0.0889
